Results: PubChem BioAssay AID488969 (Vanderbilt High Throughput Screening Facility, 2010)
Over roughly 110,000 compounds, “z-score” has its median near -0.1; the highest 2% begin near 2. The list shows a part of the results. The source made the active and inactive calls.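 The calls were made as follows: active = z-score in the third read window above 3 or below -3; inactive = the rest.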

target: Metabotropic glutamate receptor 8 (Rattus norvegicus) (UniProt P70579); experiment: mGluR8 Gi/Go-coupled signaling modulation – cell-based, rat, thallium flux, HTS, primary screen (AID 488969); details: HEK293 rat mGluR8, GIRK (G protein-gated inwardly rectifying potassium channel) thallium flux, FluoZin2; at 10 µM; stronger effect = higher value; submaximal glutamate (EC20) added with thallium
Chain of UniProt P70579 (P70579 whole entry, looked up): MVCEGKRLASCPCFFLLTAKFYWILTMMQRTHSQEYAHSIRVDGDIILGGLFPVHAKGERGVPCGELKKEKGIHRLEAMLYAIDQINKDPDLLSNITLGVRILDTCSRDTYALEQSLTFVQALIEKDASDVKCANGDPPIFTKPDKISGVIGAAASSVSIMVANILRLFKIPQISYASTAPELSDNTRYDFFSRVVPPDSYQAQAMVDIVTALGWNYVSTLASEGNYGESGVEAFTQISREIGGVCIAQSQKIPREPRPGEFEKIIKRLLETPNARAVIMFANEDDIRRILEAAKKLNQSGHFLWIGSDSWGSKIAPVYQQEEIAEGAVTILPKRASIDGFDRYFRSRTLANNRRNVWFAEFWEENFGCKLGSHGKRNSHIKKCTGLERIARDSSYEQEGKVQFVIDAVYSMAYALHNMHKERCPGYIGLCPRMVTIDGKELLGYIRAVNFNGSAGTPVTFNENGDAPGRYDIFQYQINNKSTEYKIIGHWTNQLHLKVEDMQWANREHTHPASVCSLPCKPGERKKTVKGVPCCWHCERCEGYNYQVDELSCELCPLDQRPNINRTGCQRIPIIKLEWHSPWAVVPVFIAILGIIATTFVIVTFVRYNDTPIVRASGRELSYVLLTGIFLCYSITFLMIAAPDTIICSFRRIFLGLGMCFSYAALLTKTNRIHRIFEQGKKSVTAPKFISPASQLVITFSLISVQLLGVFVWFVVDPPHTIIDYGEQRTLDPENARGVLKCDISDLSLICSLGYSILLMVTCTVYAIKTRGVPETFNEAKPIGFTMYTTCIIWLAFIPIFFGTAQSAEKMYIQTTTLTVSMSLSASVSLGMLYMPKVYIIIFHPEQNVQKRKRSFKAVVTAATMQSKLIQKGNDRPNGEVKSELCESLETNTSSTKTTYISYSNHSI

Structure (SMILES)	z-score
O=C(O)CCCCCCNS(=O)(=O)c1ccccc1	0.646
O=C(Cc1ccccc1)Nc1nc(-c2cccs2)cs1	2.99
COc1cccc(C(=O)CSc2nnc(-c3cc(OC)cc(OC)c3)o2)c1	0.263
COCCOC(=O)c1c(C)oc2ccc(OC(=O)COc3c(F)c(F)c(F)c(F)c3F)cc12	-0.171
CCN(Cc1ccccc1)C(=O)CC1Oc2ccccc2NC1=O (stereo not given)	-0.296
NC1=NC(=Nc2ccc(Cl)cc2)c2ccccc21	-0.537
Cc1ccc(CNC(=O)CCc2nc(-c3cccs3)no2)cc1	-0.128
CCOC(=O)Nc1ccc2c(c1)N(C(=O)N1CCN(C)CC1)c1ccccc1S2	1.42
O=C(c1ccccn1)c1cc2ccccc2n1S(=O)(=O)c1ccccc1	-0.502
COc1ccc(CN(C)C(=O)COC(=O)c2ccc3c(c2)OCO3)cc1OC	0.00886
COc1ccc(OC)c(NC(=O)CN2C(=O)NC3(CCOc4ccccc43)C2=O)c1 (stereo not given)	-0.196
O=[N+]([O-])c1cc([N+](=O)[O-])c(N2CCCCCC2)cc1NCCO	-0.126
Cc1cccc(C(=O)Oc2ccc(/C=N/NC(=O)Cc3ccc([N+](=O)[O-])cc3)cc2)c1	0.0891
N#Cc1nc(Cc2cccc3ccccc23)oc1N1CCN(c2ccccc2)CC1	-0.301
CC(C)OC(=O)CSc1nnc(-c2ccc(O)cc2)n1Cc1ccccc1	0.78
C=CCOc1nc2c(c(=O)n(C)c(=O)n2C)n1Cc1ccc(Cl)cc1	0.154
COc1ccc(S(=O)(=O)N(CC(=O)NCCCN(C)C)c2ccc(C)cc2)cc1OC	-0.419
Cc1cc(C)c(C)c(OCC(=O)N2CCOCC2)c1	-0.162
CN(C)S(=O)(=O)c1cccc(NC(=O)c2cc3c(=O)n4ccccc4nc3s2)c1	-0.159
O=C(CSc1nnc(-c2ccc(Cl)cc2Cl)n1C1CCCCC1)NC1CCS(=O)(=O)C1 (stereo not given)	-0.0533
CC(C)(C)c1ccc(C(=O)NC(=S)NCC2CCCO2)cc1 (stereo not given)	1.62
COc1ccc(C(=O)NCCn2cc(SCC(=O)Nc3nnc(C)s3)c3ccccc32)cc1	0.49

Structure (SMILES)	z-score
CN(CC(=O)OCC(=O)Nc1ccccc1)S(=O)(=O)c1ccc(Cl)cc1	-1.07
CCC(=O)Nc1ccc(N2CCN(Cc3ccccc3F)CC2)cc1	-0.191
Cc1nnc(SCc2ccc(F)cc2)s1	0.759
CCN(C(=O)Nc1ccccc1OC)c1c(N)n(Cc2ccccc2)c(=O)[nH]c1=O	-0.178
COc1cc2[nH]c(=O)c(C(=O)NCCCN3CCCCC3)c(O)c2cc1OC	0.35
CCCCNC(=O)c1ccccc1NS(=O)(=O)c1ccc2c(c1)OCCO2	0.243
CCOC(=O)c1ccc(Oc2c(C)oc3c(CN4CCN(C)CC4)c(O)ccc3c2=O)cc1	-0.486
Cc1ccc(-n2c(SCc3ccc([N+](=O)[O-])cc3)nc3ccccc3c2=O)cc1	-0.163
CCN(CC)C(=O)CN(c1cccc(OC)c1)S(=O)(=O)c1ccc(C)cc1	0.331
Cc1ccc(C(=O)NNC(=S)Nc2cccc(Cl)c2Cl)cc1[N+](=O)[O-]	-1.23
CCN1CCN(C(=S)NCC(C)C)CC1	0.198
Cc1cccc(C)c1N1CCc2cn[nH]c21	-0.273
COc1ccc(NC(=O)CN2c3cccc4cccc(c34)S2(=O)=O)c(OC)c1	-1.14
CCCCS/C(N)=N/N=C/c1ccccc1O	-0.147
Cc1cc(C)n(-c2ccc(C(=O)Nc3ccc(C)c(S(=O)(=O)N(C)C)c3)cc2)n1	-0.491
Cc1nc(SCC(=O)Nc2cc(C)on2)c2c3c(sc2n1)CCCC3	2.03
O=C(COC(=O)/C=C/c1cccc(C(F)(F)F)c1)NCc1ccc(F)cc1	-0.0886
C/C(=N\OC(=O)c1ccccc1)c1cc(-c2ccc(Cl)cc2)no1	-0.0857
COc1ccccc1NC(=O)c1ccc(N)cc1	0.511
Cc1csc2nc(CNC(=O)C3CC=CCC3C(=O)O)cn12 (stereo not given)	-0.0699
COc1ccc(-n2nnc3c(SCC(=O)c4ccccc4)ncnc32)cc1	-0.292
COc1ccc(OC)c(S(=O)(=O)N2c3cc(F)ccc3CCC2C)c1 (stereo not given)	-0.709

Structure (SMILES)	z-score
CN(C)c1ccc(-c2nc3ccccn3c2/N=C/c2ccc(Br)cc2)cc1	-1.35
Oc1ccc(F)cc1-c1cc(-c2ccc3c(c2)OCCO3)n[nH]1	0.0053
O=S(=O)(C(=CNc1ccccc1)S(=O)(=O)c1ccccc1)c1ccccc1	-0.251
Cc1ccccc1OC/C(O)=C(\C#N)c1nc2ccccc2[nH]1	-0.143
Cc1cc(=O)[nH]c(-n2[nH]c3c(c2=O)CCCC3)n1	0.145
S=c1[nH]ccn1-c1cccc(Cl)c1	2.29
O=C(Cn1cnc2ccccc21)N/N=C/C(Br)=C/c1ccccc1	-0.123
CCOCCCNC(=O)COc1ccc(OC)cc1	-0.32
CCOC(=O)c1cc2sccc2n1CC(=O)N1CCN(C(=O)c2ccco2)CC1	-0.106
COc1ccc2[nH]c3c(c2c1)CN(C)CC3	0.187
O=c1[nH]cnc2sc(-c3ccccc3)cc12	-0.157
CC1(C)C(=O)Nc2ccccc2N1C(=O)CSc1nnc2c(Cl)cc(Cl)cn12	0.00651
COc1ccc(C(=O)COc2ccc(NC(C)=O)cc2)cc1	-0.0378
O=C(/C=C/N1CCOCC1)c1ccc(-c2ccccc2)cc1	-0.364
COc1c2c(nc3ccccc13)OC(C(C)(O)CO)C2 (stereo not given)	0.415
COc1cccc(C2CC(=O)N3CN(c4cccc(Cl)c4C)CSC3=C2C#N)c1OC (stereo not given)	-0.00782
COc1cccc(C(=O)Nc2ccc(Cl)c(C(F)(F)F)c2)c1	0.0679
Cc1ccc(S(=O)(=O)CCC(=O)Nc2ccc3nc(C)sc3c2)cc1	-0.0953
O=C(O)c1c2c(nc3ccc(F)cc13)CCC2	-0.176
Cc1ccc(C(=O)N2CCN(S(C)(=O)=O)C2)cc1	1.04
CCCc1[nH][nH]c(=O)c1C(c1ccc(Br)cc1)C(C#N)C#N (stereo not given)	-1.32
CCCC1=C([O-])C2N=CC=CC2=[N+](c2ccccn2)C1=O (stereo not given)	-0.187

Structure (SMILES)	z-score
O=C1CCCC2=C1C1c3ccccc3C(=O)N1c1ccc(C(=O)c3ccccc3)cc1N2 (stereo not given)	-0.774
CCc1ccc(NC(=O)CCS(=O)(=O)c2cccc3nsnc23)cc1	0.474
COc1ccccc1/C=C/C(=O)OCC(=O)NCc1ccco1	0.0676
Oc1cccc(Nc2ncnc3ccccc23)c1	0.297
COc1cccc(N2CCN(C3C4CC5CC(C4)CC3C5)CC2)c1 (stereo not given)	0.173
Clc1ccc(C2C3=C(Nc4ncnn42)c2ccccc2CC3)cc1 (stereo not given)	-1.05
CS(=O)(=O)N(Cc1ccco1)CC(O)Cn1c2ccccc2c2ccccc21 (stereo not given)	0.358
Cc1cc(C(=O)COc2ncnc3sccc23)c(C)n1C	2.04
Cn1c(-c2ccc(F)cc2)cnc1NCc1cc2c(cc1[N+](=O)[O-])OCO2	-0.307
Cc1nc2ccccc2c(-c2ccccc2)c1C(=O)c1ccccc1	-2.03
CC(C)CC(=O)N1CCN(c2ccc([N+](=O)[O-])cc2Cl)CC1	-0.00677
Cc1ccc(O)c(-c2cc(C(F)(F)C(F)F)[nH]n2)c1	-0.574
CC1=C(C)C(c2ccccc2)NC(=S)N1 (stereo not given)	active: 3.39
Cc1ccc(CNCCC2=CCCCC2)cc1	2.07
Cc1ccc(-c2nnc(-n3nc(C)cc3C)c3ccccc23)cc1	-0.24
O=C(CN1CCN(S(=O)(=O)c2ccccc2)CC1)Nc1ccc([N+](=O)[O-])cc1	-0.0738
CCn1c(SCC(=O)Nc2cccc(C)n2)nnc1-c1ccco1	-0.136
Cc1nn(C)c(C)c1S(=O)(=O)N1CCC(C(=O)NC2CCCc3ccccc32)CC1 (stereo not given)	0.592
Cc1ccc(-c2cc(C(=O)N/N=C/c3c(C)nn(-c4ccccc4)c3C)[nH]n2)cc1	-0.454
COc1ccc(Cc2nnc(N)s2)cc1OC	-0.214
O=C(Nc1ccc(Cl)cn1)c1cnn2cccnc12	0.534
CC(C)[C@H](NC(=O)c1ccccc1F)C(=O)Nc1nc2c(s1)CCCC2	2.3

Structure (SMILES)	z-score
CCn1c(C)c(C(C)=O)c(N2CCC(C(N)=O)CC2)nc1=S	0.288
COc1ccc([N+](=O)[O-])cc1/C=N/NC(=O)/C(=C\c1cccs1)NC(=O)c1ccccc1	-0.485
CCN(CC)CCCN1C(=O)c2oc3ccccc3c(=O)c2C1c1cccc(OC)c1OC (stereo not given)	0.625
NS(=O)(=O)c1ccc(NC(=S)N2CCN(c3ccc(Cl)c(Cl)c3)CC2)cc1	0.168
COc1ccc(C2=NO[C@@H]3C(=O)N(C4CCCCC4)C(=O)[C@H]23)cc1OC	-0.0141
Cc1c(C2=CCN(S(=O)(=O)c3ccc(Br)cc3)CC2)c2ccccc2n1C	0.058
Cc1ccc(Cn2c(SC3CCOC3=O)nc3ccccc3c2=O)cc1 (stereo not given)	-0.587
Cc1ccccc1S(=O)(=O)Nc1nc2ccccc2nc1N1CCOCC1	0.635
O=C(Nc1ccc2c(c1)OCCO2)C1CCCN(S(=O)(=O)c2cccs2)C1 (stereo not given)	-0.198
COc1ccc(-n2c(O)c(/C=N/NS(=O)(=O)c3cc(C)ccc3C)c3ccccc3c2=O)cc1OC	-1
CCOCC(=O)N1CCN(c2ccc([N+](=O)[O-])cc2)CC1	-0.138
Cn1nc([N+](=O)[O-])nc1Sc1ccc(C(C)(C)C)cc1	0.378
CCc1c(C)nc2ncnn2c1N1CCC(C(=O)N2CCN(c3ccc(F)cc3)CC2)CC1	0.284
O=C(Nc1ccccc1)N(CCc1ccncc1)C1CCCCC1	0.332
Cn1ccnc1SCC(=O)Nc1ccccc1	0.326
O=[N+]([O-])c1cccc(-c2nc(Oc3ccc(Cl)cc3)c3ccccc3n2)c1	-0.621
Cc1nn(-c2ccccc2)c(Cl)c1/C=C/C(=O)c1ccccc1	0.866
Cc1ccc(CNC(=O)C23CN(Cc4ccccc4)CC2C(c2ccc([N+](=O)[O-])cc2)=NO3)cc1 (stereo not given)	-0.127
Nc1c(-c2ccccc2)nc(Cl)nc1-c1ccccc1	-0.494
C=CCn1c(CCCOc2ccc(Cl)cc2Cl)n[nH]c1=S	0.176
CC(OC(=O)CCC(=O)c1cccs1)C(=O)Nc1ccc(Cl)cn1 (stereo not given)	-0.131
Cc1c(C)[n+](=O)c(-c2ccc(F)cc2)c(C)n1[O-]	1.42
